In PubChem BioAssay AID1346428 (National Center for Advancing Translational Sciences (NCATS), 2018) one finds activation data, which are given here for 54 compounds.

Out of some 48,000 compounds screened, about 1,200 (2.5%) were called active. Roughly 2% stayed inconclusive and do not appear here.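 How the source made its calls: active means activation of at least 60% and not above a set upper limit (about 1 call in 100 departs from these limits); inconclusive means activation of 40% to 60%, or above that upper limit; inactive means activation under 40%.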 This is one part of the list.

The target in the assay is Probable G-protein coupled receptor 32 (Homo sapiens) (UniProt O75388). Briefly: qHTS for Agonists of Human Resolvin D1 Receptor DRV1. Further: 0% is about no effect. To be noted: CHO-K1 GPR32 beta-arrestin PathHunter luminescence, 90 min; at 76.9 µM; stronger effect = higher value; zero percent set by DMSO-only wells. Summed up: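 GPR32 activation in stably transfected CHO-K1 cells, detected as beta-arrestin recruitment by enzyme-fragment complementation. Compound exposure: 90 min, 37 °C.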
UniProt O75388, sequence (O75388 whole entry, looked up, the tested form may be a part): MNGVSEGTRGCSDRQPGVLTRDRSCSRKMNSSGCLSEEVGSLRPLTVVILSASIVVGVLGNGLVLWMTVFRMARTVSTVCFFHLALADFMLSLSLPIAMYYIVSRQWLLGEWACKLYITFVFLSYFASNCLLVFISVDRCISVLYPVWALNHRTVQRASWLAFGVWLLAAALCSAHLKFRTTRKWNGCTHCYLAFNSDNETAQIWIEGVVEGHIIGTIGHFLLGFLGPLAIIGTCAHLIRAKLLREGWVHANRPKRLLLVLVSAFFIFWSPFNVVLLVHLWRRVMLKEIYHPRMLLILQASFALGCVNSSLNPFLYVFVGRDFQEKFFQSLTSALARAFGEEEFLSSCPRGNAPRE
For orientation: In qHTS, concentration-response curves come from the screen itself.
Turning to `COc1cc(NC(=O)CSc2ccc(-c3sc(C)nc3C)nn2)cc(OC)c1`, the activation is inactive: -0.905%.

On to `Cc1ccc(S(=O)(=O)C(CNC(=O)C(=O)NCCc2ccc(F)cc2)c2cccs2)cc1` (centres undefined), for which the activation was inactive: 15.9%.

With `O=C(CSc1nc2c([nH]c3ccccc32)c(=O)n1-c1ccc(F)cc1)Nc1ccc2c(c1)OCO2`, the activation was inactive: -5.18%.

Regarding `Cc1ccc(-c2onc(C)c2C)cc1S(=O)(=O)N1CCc2ccccc21`, the activation was inactive: -16.4%.

Consider `Cc1nc(-c2ccc(Cl)cc2)sc1CCNC(=O)C(=O)Nc1ccccc1C#N`, for which the activation was inactive: 47%.

As to `Cc1cccc(CCNC(=O)CCc2c(C)nc3c(-c4ccc(F)cc4)c(C)nn3c2C)c1`, the activation was inactive: -0.0802%.

On to `CN1CCN(c2ccc(-c3nc(-c4ccccc4)no3)cc2[N+](=O)[O-])CC1`, for which the activation was active: 83.1%.

For `COC(=O)c1ccc(NC(=O)C(c2ccccc2)N2Cc3ccccc3C2=O)cc1` (centres undefined), the activation was inactive: -20.4%.

Turning to `COc1ccc(N2CCN(C(=O)c3cc4c(s3)-c3c(C)cccc3OC4)CC2)cc1`, the activation was inactive: -5.89%.

As for `Cc1cc(C)cc(NC(=O)C2CCCN(c3nnc(-n4c(C)ccc4C)s3)C2)c1` (centres undefined), the activation is inactive: 0.997%.

Turning to `COCCn1c(SCC(=O)Nc2ccc(Br)cc2)nc2c([nH]c3ccccc32)c1=O`, the activation is inactive: 15.4%.

For the compound `CCCCN(C(=O)Nc1ccc(OCC)cc1)C1CCN(C(C)=O)CC1`, the activation is inactive: -15.7%.

`CCCc1ccc(OC(=O)c2sc3ncn(Cc4cccc(F)c4)c(=O)c3c2C)cc1`: the activation is inactive: -8.38%.

In the case of `COc1ccc(NC(=O)Cn2c(SCc3c(F)cccc3Cl)nc3ccncc32)cc1OC`, the activation is inactive: 2.49%.

As for `COC(=O)/C=C(/C)N`, the activation was inactive: 4.21%.

As for `CCN(CC)c1ccc(NC(=O)C2CCCN(S(=O)(=O)c3ccc4c(c3)oc(=O)n4C)C2)c(C)c1` (centres undefined), the activation was inactive: 6.61%.

Consider `CCOC(=O)c1c(S(=O)(=O)N2CCN(c3cc(Cl)ccc3C)CC2)c(C)n(C)c1C`, for which the activation was inactive: -2.62%.

Turning to `Cc1ccc(NC(=O)C2CCCN(S(=O)(=O)c3ccc(C)cc3)C2)cc1` (centres undefined), the activation was inactive: -11.9%.

On to `CCC(Sc1nc2n[nH]c(C)c2c(=N)n1-c1ccc(Br)cc1)C(=O)N(CC)CC` (centres undefined), for which the activation is inactive: -9.24%.

Turning to `COc1ccccc1CSc1nc2n(n1)C(c1ccccc1)C(C(=O)Nc1ccc(C)cc1)=C(C)N2` (centres undefined), the activation was inactive: -3.94%.

In the case of `COc1cc(NS(=O)(=O)c2ccc3c(c2)OCC(C(=O)N2CCCC2)O3)cc(OC)c1` (centres undefined), the activation was inactive: 19.5%.

As for `COc1ccccc1-c1ncnn1-c1sc2c(c1C#N)CCCCC2`, the activation is inactive: 40.9%.

For the compound `COc1ccc(NC(=O)Cn2ncc3c4ccccc4n(Cc4ccccc4)c3c2=O)cc1OC`, the activation was inactive: -2.58%.

As for `NC1(C(=O)O)CCCCC1`, the activation is inactive: 8.46%.

In the case of `Cc1ccc(NC(=O)Cn2nc(-c3ccc(Cl)cc3)c3ccccc3c2=O)cc1`, the activation is inactive: -5.95%.

For the compound `CCCC(=O)OCc1cnc(C)c2oc(=O)c(C(=O)Nc3ccc(F)cc3C)cc12`, the activation is inactive: -11.9%.

For the compound `Cc1cccc(CNC(=O)C2CCN(S(=O)(=O)c3cccc4nonc34)CC2)c1`, the activation is inactive: 37.4%.

On to `Cc1ccc(C)c(NC(=O)C2CCCN2S(=O)(=O)c2ccc3c(c2)CCCC(=O)N3)c1` (centres undefined), for which the activation was inactive: 3.24%.

In the case of `CCC1=Nc2cc(C(=O)N3CCC(C)CC3)ccc2Sc2ccc(C)cc21`, the activation is inactive: -26.3%.

For `COc1ccc(-c2noc(CNC(=O)c3ccc(OC)cc3OC)n2)cc1`, the activation is inactive: -5.4%.

Regarding `CCOc1ccc(CCNC(=O)C2CC(=O)N(CCc3ccc(OC)c(OC)c3)C2)cc1OCC` (centres undefined), the activation is inactive: -5.82%.

Consider `Cc1ccc2nc(N3CCN(c4ccc(F)cc4)CC3)c3nnnn3c2c1`, for which the activation is inactive: 4.39%.

With `COc1cccc(-c2noc(COc3cccc(C)c3C)n2)c1`, the activation is inactive: -12.4%.

In the case of `CCCCN(CC)CCNC(=O)c1nn(-c2ccc(OC)cc2)c(=O)c2c1c1ccccc1n2C`, the activation was inactive: -12.1%.

With `N#C/C(=C\c1ccccc1)c1nc(-c2cc3c(ccc4ccccc43)oc2=O)cs1`, the activation is inactive: 1.28%.

On to `CCOC(=O)c1c(NC(=O)COc2ccc(OC)cc2)sc(C(=O)N(CC)CC)c1C`, for which the activation was inactive: -23.6%.

For the compound `CCOC(=O)c1cccc(NC(=O)Cn2cnc3nc4c(cc3c2=O)CCCC4)c1`, the activation is inactive: -5.72%.

In the case of `CCN(CC)CCCNC(=O)c1ccc2c(c1)NC(=O)C(CS(=O)(=O)Cc1ccc(F)cc1Cl)N2` (centres undefined), the activation was inactive: 0.542%.

For the compound `COCCNC(=O)c1sc2nc3n(c(=O)c2c1C)CCC3`, the activation was inactive: -3.52%.

For the compound `COc1ccc(-c2ccc(N)[n+](CCCC(=O)O)n2)cc1`, the activation is inactive: -8.7%.

Turning to `CCc1ccc(NS(=O)(=O)c2ccc3[nH]cc(C(=O)NCCc4ccccc4)c(=O)c3c2)cc1`, the activation is inactive: -7.52%.

Take `CCNC(=O)NCCCOc1cccc(CN2CCCCC2)c1`: the activation is inactive: -2.65%.

As for `COc1ccc(N2CC(c3nc(-c4ccccc4C)no3)CC2=O)cc1Cl` (centres undefined), the activation is inactive: 45.9%.

For `CCCCC(=O)Nc1cc(-c2cn3cccnc3n2)ccc1C`, the activation is inactive: -13.6%.

On to `CCOc1ccc(-c2c(C)nn3c(C)c(C(=O)NC(C)c4ccccc4)cnc23)cc1OCC` (centres undefined), for which the activation is inactive: -2.77%.

As to `CCCn1cc(S(=O)(=O)c2ccc(OCC)cc2)c(=O)c2cc(C)ccc21`, the activation is inactive: 4.28%.

On to `O=C(Cn1ccn(-c2ccc(F)c(F)c2)c(=O)c1=O)NCc1ccccc1`, for which the activation is inactive: -7.22%.

Regarding `Cc1c(-c2cccc(NC(=O)Cc3ccccc3)c2)nc2ncccn12`, the activation is inactive: 30.2%.

Take `COc1ccc(CNc2nc(-c3ccccc3)nn2C(=O)c2ccccc2OC)cc1`: the activation was inactive: -7.27%.

Take `COc1cc(Cl)c(S(=O)(=O)N2CCN(c3c(C)cccc3C)CC2)cc1Cl`: the activation is inactive: -8.87%.

In the case of `Cc1ccc(OCCSc2nc3ccccc3n2CC(=O)N2CCOCC2)cc1C`, the activation is inactive: 18.4%.

For the compound `Cc1cc(C)c(NC(=O)c2cc(S(=O)(=O)N3CCCC3)cn2C)c(C)c1`, the activation is inactive: -6.75%.

As to `CN(Cc1ccccc1)C(=O)c1c[nH]c2ccc(S(=O)(=O)Nc3ccccc3F)cc2c1=O`, the activation is inactive: -6.4%.

As to `CCOC(=O)c1cc2c(=O)n3ccccc3nc2n(CC2CCCO2)c1=NC(=O)c1ccc(OCC)cc1` (centres undefined), the activation was inactive: -1.48%.
